The antibiotic and cytotoxicity screens of Wong et al. (2023)
This is one part of the list.

tested on: S. aureus RN4220; assay: growth inhibition call (relative growth <= 0.2); settings: 50 µM

Growth inhibition call, inactive:
COCCc1ccc(OCC(O)CNC(C)C)cc1.O=C(O)C(O)C(O)C(=O)O (stereo not given), C[C@@H]1CN([C@H](C)CO)C(=O)c2cc(NC(=O)CCC(F)(F)F)ccc2O[C@@H](C)CCCCO[C@H]1CN(C)Cc1ccncc1, C[C@@H]1CN([C@H](C)CO)C(=O)Cc2cc(NC(=O)CCCCCC(=O)Nc3ccccc3N)ccc2O[C@H]1CN(C)Cc1ccccc1, CNC[C@H]1OCCCC[C@@H](C)Oc2ccc(NC(=O)Nc3cccc4ccccc34)cc2C(=O)N([C@H](C)CO)C[C@H]1C, COc1ccc(S(=O)(=O)Nc2ccc3c(c2)C(=O)N([C@@H](C)CO)C[C@H](C)[C@@H](CN(C)Cc2ccc4c(c2)OCO4)OCCCC[C@H](C)O3)cc1, CCS(=O)(=O)N1C[C@]2(CN(Cc3cc(ccc3F)F)C2)c2c(n(c3cc(ccc23)OC)C)[C@H]1CO, CC(=O)Nc1nonc1N1CCCC1=O, CC(C)NC(=O)NCC[C@H]1CC[C@H](NC(=O)CN(C)C)[C@H](CO)O1, N#CCSc1n[nH]c(=O)[nH]c1=O, Cc1noc(C)c1S(=O)(=O)N(C)C[C@H]1OCCCC[C@@H](C)Oc2ccc(NS(C)(=O)=O)cc2C(=O)N([C@H](C)CO)C[C@@H]1C, C[C@@H]1CCCCO[C@H](CN(C)CC2CCCCC2)[C@@H](C)CN([C@H](C)CO)C(=O)c2cc(NC(=O)Nc3ccc4c(c3)OCO4)ccc2O1, COc1ccc(CN(C)C[C@H]2OCCCC[C@@H](C)Oc3ccc(NC(=O)NC(C)C)cc3C(=O)N([C@H](C)CO)C[C@@H]2C)cc1, C/C=C/C[C@@H](C)[C@@H](O)[C@H]1C(=O)N[C@@H](CC)C(=O)N(C)CC(=O)N(C)[C@@H]([C@@H](C)CC)C(=O)N[C@@H](C(C)C)C(=O)N(C)[C@@H](CC(C)C)C(=O)N[C@@H](C)C(=O)N[C@H](C)C(=O)N(C)[C@@H](CC(C)C)C(=O)N(C)[C@@H](CC(C)C)C(=O)N(C)[C@@H](C(C)C)C(=O)N1C, CC(=O)N1[C@@H]2c3cccc(=O)n3C[C@H]1[C@H](CO)[C@H]2C(=O)N1CCc2ccccc2C1, COCC#Cc1ccc([C@@H]2[C@@H](CO)N3C(=O)CN(C(=O)C4CCOCC4)C[C@H]23)cc1, C[C@@H]1CN([C@@H](C)CO)C(=O)Cc2cc(NS(=O)(=O)c3ccccc3)ccc2O[C@H]1CN(C)Cc1ccc(-c2ccccc2)cc1, Nc1ccccc1C(=O)N1CCOCC1, Cc1ccc(N2CC[C@@H](CN)C2)cc1, COc1ccc(S(=O)(=O)N(C)C[C@H]2OCCCC[C@H](C)Oc3ccc(NC(=O)C4CCCCC4)cc3C(=O)N([C@@H](C)CO)C[C@@H]2C)cc1, C[C@@H]1CCCCO[C@H](CN(C)Cc2ccccc2)[C@H](C)CN([C@@H](C)CO)C(=O)c2cc(NC(=O)CCC(F)(F)F)ccc2O1, C[C@H]1CN([C@@H](C)CO)C(=O)CCCn2cc(nn2)CO[C@@H]1CN(C)C(=O)Nc1cccc(Oc2ccccn2)c1, CO[C@H]1CN(C)C(=O)c2ccc(NC(=O)CC(F)(F)F)cc2OC[C@H](C)N(S(=O)(=O)c2cn(C)cn2)C[C@H]1C, CCCCOc1cc(C(=O)NCCN(CC)CC)c2ccccc2n1.Cl, C[C@@H]1CN([C@@H](C)CO)C(=O)CCCn2nncc2CO[C@H]1CN(C)C(=O)Nc1ccc(C(C)(C)C)cc1, C[C@H](CO)N1C[C@H](C)[C@@H](CN(C)Cc2cccc(C(F)(F)F)c2)OCc2ccccc2-c2ccccc2C1=O, C[C@@H]1CCCCO[C@@H](CN(C)CC2CC2)[C@@H](C)CN([C@H](C)CO)C(=O)c2cc(NC(=O)CCC(F)(F)F)ccc2O1, C[C@H](CO)N1C[C@H](C)[C@H](CN(C)Cc2ccc(C(=O)Nc3ccccc3N)cc2)Oc2ccc(NC(=O)C3CCCCC3)cc2CC1=O, O=C1N[C@H](Cc2c[nH]c3ccccc23)COC(=O)[C@@H](Cc2ccc(F)cc2)CC=CC[C@@H]1CC(=O)N(CCO)Cc1ccccc1, C[C@H](CO)N1C[C@H](C)[C@@H](CN(C)C(=O)Nc2ccc(-c3ccccc3)cc2)OCc2ccccc2-c2c(n(C)c3ccccc23)C1=O, Cc1noc(C)c1NC(=O)N(C)C[C@@H]1Oc2ccc(NS(=O)(=O)c3ccccc3)cc2CC(=O)N([C@H](C)CO)C[C@@H]1C, Cc1ccc(S(=O)(=O)N(C)C[C@H]2Oc3c(NS(=O)(=O)c4cn(C)cn4)cccc3C(=O)N([C@H](C)CO)C[C@H]2C)cc1, CC(C)NC(=O)Nc1ccc2c(c1)C(=O)N(C)[C@@H]1CC[C@@H](CC(=O)NCc3ccc(F)cc3)O[C@@H]1CO2, C[C@H](CO)N1C[C@H](C)[C@@H](CN(C)C(=O)Nc2ccc3c(c2)OCO3)Oc2ccc(NC(=O)CCCN(C)C)cc2C1=O, Clc1ccc2c(c1)[C@H]1C=CC[C@@H]1[C@@H](c1ccccc1)N2, CC(N)(Cc1ccc(O)c(O)c1)C(=O)O (stereo not given), C[C@@H]1CN([C@@H](C)CO)C(=O)c2cc(NS(=O)(=O)c3cccs3)ccc2O[C@@H](C)CCCCO[C@@H]1CN(C)CC1CCCCC1, CC(=O)O[C@@]1(C)C[C@@H](O)[C@@H]2C=CO[C@@H](O[C@@H]3O[C@H](CO)[C@@H](O)[C@H](O)[C@H]3O)[C@@H]21, O=C(Cc1ccccc1)Nc1ccccc1Sc1ccccc1, COc1ccc(S(=O)(=O)Nc2ccc3c(c2)C(=O)N([C@@H](C)CO)C[C@@H](C)[C@H](CN(C)C(=O)Nc2ccc(C(F)(F)F)cc2)OCCCC[C@H](C)O3)cc1, C[C@@H]1CN([C@@H](C)CO)S(=O)(=O)c2ccc(C#Cc3ccccc3F)cc2O[C@@H]1CN(C)CC1CC1
